Assay results reported in PubChem BioAssay AID504832 (National Center for Advancing Translational Sciences (NCATS), 2011).
Among all 310,000 compounds or so, about 18,000 (5.8%) were called active. Inconclusive results, whose numbers are uncertain, are shown with a selection of clear calls. The call rests on the fitted dose curve; in most records, active means well fitted inhibition curve with a large enough effect; inconclusive means small, poorly fitted or top-dose-only effect, or another doubt; inactive means no such curve, though single readings can be large or run the other way. No potency is given beside an inconclusive call; the fits are too rough.

Test: Primary qHTS for delayed death inhibitors of the malarial parasite plastid, 48 hour incubation
Conditions: P. falciparum luciferase growth in erythrocytes; series mostly up to 28.7 µM
Summary of the method: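 Here the parasites carry a stable luciferase gene and grow inside erythrocytes in Albumax-based RPMI medium with compound for one erythrocytic cycle. Activity is scored as loss of luminescent signal.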
Potency means the concentration at half of the fitted maximal effect; tags describe the fitted curve by direction and shape.

Structure (SMILES)	Potency
Cc1ccc2[nH]c(=O)c(CN(C(=O)c3cccc([N+](=O)[O-])c3)C(C)C)cc2c1	inactive
CCCCC(CC)CNC(=O)C(=O)c1ccccc1NC(C)=O (centres undefined)	inconclusive [inhibitor, partial curve, poor fit]
CCCCC(=O)Nc1ccc2c(c1)nc1n2CCN(CCOC)C1	inactive
COc1cc2c(cc1OC)C(C(=O)Nc1cc(OC)c(OC)c(OC)c1)C(c1cccnc1)N(C)C2=O (centres undefined)	inconclusive [inhibitor, full curve]
CC(=O)c1ccccc1OCCn1nnc(-c2ccc(C)cc2)n1	inconclusive [inhibitor, single point]
CC(=O)c1ccc(NC(=O)C(C)n2c3ccccc3c3nc(=O)cc(C)n32)cc1 (centres undefined)	inconclusive [inhibitor, partial curve, poor fit]
COc1cccc(N2C(=O)C(O)=C(C(C)=O)C2c2ccc(OC)c(OC)c2)c1 (centres undefined)	active: 13.1 µM
N=c1c(C(=O)NCC2CCCO2)cc2c(=O)n3ccccc3nc2n1Cc1ccc(F)cc1 (centres undefined)	inconclusive [inhibitor, single point]
CCC(C)Sc1ccc([C@H]2N[C@@](Cc3ccccc3)(C(=O)OC)[C@H]3C(=O)N(CC)C(=O)[C@@H]23)cc1 (some centres undefined)	active: 3.29 µM
CCC(O)(CC)C(=O)N(Nc1ccc(C)cc1)c1ccc(C)cc1	inconclusive [inhibitor, single point]
COc1ccc(C(c2nnnn2CC2CCCO2)N2CCN(c3cccc(C)c3C)CC2)cc1 (centres undefined)	active: 9.28 µM
CCNC(=S)NCc1ccco1	inactive
Cc1ccccc1NC(=S)NC(NC(=O)C(C)(C)C)C(Cl)(Cl)Cl (centres undefined)	inconclusive [inhibitor, partial curve, poor fit]
Cc1ccccc1OCc1nc2ccccc2c(=O)n1NC(=O)c1ccco1	inconclusive [inhibitor, partial curve, poor fit]
COc1cc(N=c2ssnc2Cl)cc(OC)c1OC	inactive
CC(C)Oc1cccc(C(=O)C2CCCN(Cc3ccc4nonc4c3)C2)c1 (centres undefined)	inactive
Cc1occc1C(=O)N1CCN(c2ccccc2)CC1	inactive
S=C(NCC1CCCO1)n1nnc2ccccc21 (centres undefined)	inconclusive [inhibitor, full curve, poor fit]
CC1CCc2nn(CC(=O)N3CCCCCC3)cc2C1 (centres undefined)	inactive
O=C(CCc1nc2ccccc2c(=O)[nH]1)NCCN1C(=O)S/C(=C\c2ccc(Cl)cc2Cl)C1=O	inconclusive [inhibitor, full curve, poor fit]
CC[C@@]1(O)C[C@H](O[C@H]2C[C@@H](N(C)C)[C@@H](O[C@H]3C[C@@H](O)[C@@H](O[C@H]4CCC(=O)[C@@H](C)O4)[C@@H](C)O3)[C@@H](C)O2)c2c(cc3c(c2O)C(=O)c2c(O)cccc2C3=O)[C@H]1C(=O)OC	active: 0.0849 µM
N/C(CCS(=O)(=O)c1ccc(Cl)cc1)=N\OC(=O)c1ccccc1Cl	inconclusive [inhibitor, single point]

Structure (SMILES)	Potency
Cc1ccc(OCC(=O)N2CCCc3ccccc32)cc1	inconclusive [inhibitor, single point]
COc1ccc(C(CNC(=O)CN2C(=O)NC3(CCCC3)C2=O)N(C)C)cc1 (centres undefined)	inactive
COC(=O)CSc1ncnc2c(C)csc12	inactive
CN(Cc1ccc(Cl)cc1Cl)C(=O)CCNC(=O)c1ccco1	inconclusive [inhibitor, partial curve, poor fit]
O=C(N/N=C/c1ccccc1O)C(=O)Nc1ccccn1	inconclusive [inhibitor, single point]
Cc1nc([N+](=O)[O-])c(Sc2nc3ccccc3[nH]2)n1Cc1ccccc1	inconclusive [inhibitor, single point]
CSc1cccc(NC(=S)N2CCCN(Cc3cccc(Cl)c3)C2)c1	active: 10.4 µM
O=[N+]([O-])c1ccc(N=Nc2c(Cl)cc(O)cc2Cl)cc1	inconclusive [inhibitor, single point]
Cc1nnc(NC2=NCCC2)s1	inconclusive [inhibitor, single point]
CCOC(=O)CN(C(=O)CNC(=O)c1cccs1)C(C(=O)NC1CCCCC1)c1cccs1 (centres undefined)	inconclusive [inhibitor, single point]
COCCNc1nc(N)c([N+](=O)[O-])c(NCc2ccccc2)n1	inconclusive [inhibitor, partial curve]
CC1(C)CC(=O)C2=C(C1)N(Cc1ccco1)C(=O)C2(NC(=O)c1ccc(Cl)cc1Cl)C(F)(F)F (centres undefined)	inconclusive [inhibitor, single point]
CC(C)(C)NC(=O)COC(=O)c1ccccc1Nc1ccc(SC(F)F)cc1	inconclusive [inhibitor, single point]
CCOc1ccc(S(=O)(=O)N2CCOCC2)cc1NC(=O)CCOc1ccc(C(C)(C)C)cc1	inconclusive [inhibitor, full curve]
Oc1ccc(CNc2cccc(F)c2F)c2cccnc12	active: 10.4 µM
C/C(=N\Nc1ncc(Cl)cc1Cl)c1ccc(C#N)cc1	inactive
O=C(COC(=O)Cc1ccc2c(c1)OCCO2)Nc1ccc(S(=O)(=O)N2CCCC2)cc1	inactive
Cc1cc(C)c2nc(Cl)c(CN(Cc3ccco3)C(=O)Nc3ccccc3C)cc2c1	active: 11.7 µM
Cc1cccc(NC(=O)CSCC(=O)N(C)Cc2c(F)cccc2Cl)c1	inconclusive [inhibitor, single point]
CCOC(=O)c1c(-c2ccc(C)cc2)csc1NC(=O)CCN1CC(C)OC(C)C1 (centres undefined)	inconclusive [inhibitor, single point]
O=C(c1cccc(S(=O)(=O)N2CCCCCC2)c1)N1CCN(c2ccccc2)CC1	inconclusive [inhibitor, single point]
CC(=O)NNC(=O)c1[nH]c2ccc(Cl)cc2c1-c1ccccc1	inactive
